In all, about 310,000 compounds went through this assay and about 14,000 (4.5%) showed an effect of 50% or more. The effect is printed as a negative number. The list shows a part of the results.
target: human ether-à-go-go-related gene (hERG) potassium channel (human, UniProt Q12809); assay: primary screen, population patch clamp on CHO cells stably expressing hERG
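Note: peak tail current of the secondary pulse compared with the same well before compound.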

Chain of human ether-à-go-go-related gene (hERG) potassium channel (Q12809 whole entry, looked up): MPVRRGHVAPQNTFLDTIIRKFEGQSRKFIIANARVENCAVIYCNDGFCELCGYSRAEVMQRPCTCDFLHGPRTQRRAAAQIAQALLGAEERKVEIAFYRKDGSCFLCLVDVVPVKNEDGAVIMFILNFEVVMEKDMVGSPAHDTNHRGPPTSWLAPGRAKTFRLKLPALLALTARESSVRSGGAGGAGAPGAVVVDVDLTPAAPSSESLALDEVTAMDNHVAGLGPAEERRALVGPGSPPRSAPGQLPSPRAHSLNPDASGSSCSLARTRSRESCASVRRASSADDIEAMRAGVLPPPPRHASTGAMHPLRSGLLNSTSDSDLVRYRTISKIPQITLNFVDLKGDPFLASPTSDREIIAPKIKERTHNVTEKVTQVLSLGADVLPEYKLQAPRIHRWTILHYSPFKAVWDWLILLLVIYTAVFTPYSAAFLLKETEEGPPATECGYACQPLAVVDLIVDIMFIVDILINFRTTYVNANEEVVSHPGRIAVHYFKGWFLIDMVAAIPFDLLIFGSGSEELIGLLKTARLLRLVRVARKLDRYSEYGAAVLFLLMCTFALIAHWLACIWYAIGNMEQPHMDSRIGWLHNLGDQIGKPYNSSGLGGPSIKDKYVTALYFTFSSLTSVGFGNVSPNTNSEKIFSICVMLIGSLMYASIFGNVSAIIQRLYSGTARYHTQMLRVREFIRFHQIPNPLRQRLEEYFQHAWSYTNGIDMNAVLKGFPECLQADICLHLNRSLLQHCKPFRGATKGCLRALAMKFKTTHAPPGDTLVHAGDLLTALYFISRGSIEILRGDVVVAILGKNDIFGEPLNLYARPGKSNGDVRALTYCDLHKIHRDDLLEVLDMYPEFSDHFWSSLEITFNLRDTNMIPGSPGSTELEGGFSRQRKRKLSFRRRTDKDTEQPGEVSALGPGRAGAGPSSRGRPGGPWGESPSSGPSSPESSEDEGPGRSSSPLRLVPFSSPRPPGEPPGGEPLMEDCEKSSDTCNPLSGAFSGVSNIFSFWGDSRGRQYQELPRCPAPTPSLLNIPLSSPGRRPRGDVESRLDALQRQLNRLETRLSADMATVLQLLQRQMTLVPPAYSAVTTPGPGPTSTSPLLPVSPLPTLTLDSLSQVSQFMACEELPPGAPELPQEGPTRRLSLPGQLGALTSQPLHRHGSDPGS

Row | SMILES | hERG current change (%, negative = inhibition) at 10uM
1 | COc1ccc(S(=O)(=O)N2CCCCCC2)cc1N(C)S(=O)(=O)c1ccccc1 | -19%
2 | COc1ccc(CC2(CO)CCN(Cc3ccc4c(c3)CCO4)CC2)cc1 | -65.7%
3 | O=C(CN1C(=O)NC2(CCCC2)C1=O)OCCOc1ccc(Cl)cc1 | -10.2%
4 | COCCn1cnnc1SCC(=O)Nc1sc2c(c1C#N)CCC2 | 8.01%
5 | CC1Nc2ncnc(N3CCN(c4ccccc4)CC3)c2N(Cc2ccccc2)C1=O.O=C(O)C(F)(F)F (stereo not shown) | 16.1%
6 | Cc1cccc(CC2CC(=O)N(C3CCCCC3)C2=O)c1 (stereo not shown) | 0.986%
7 | CCCCCN(C(=O)CCC(=O)OCC(=O)Nc1ccc(C)cc1F)c1c(N)n(CCCC)c(=O)[nH]c1=O | 5.51%
8 | CC(C)C(NS(=O)(=O)c1cccs1)C(=O)N(C)Cc1ccccc1 (stereo not shown) | -10.2%
9 | Cn1nc(NC(=O)C2CCC2C(=O)O)c2c(F)cccc21 (stereo not shown) | -0.347%
10 | COC(=O)c1sc2nc(-c3ccccc3)c3c(c2c1N)CCCC3 | -8.25%
11 | CCOc1cc(/C=N/NC(=O)CCCC(=O)NC2CCCCC2)ccc1O | 7.13%
12 | Cc1c(Cl)cccc1NC(=O)CSc1nc(=O)n(CCCN2CCOCC2)c2c1CCC2 | -47.1%
13 | Brc1ccc(CSc2ccc(-c3ccco3)nn2)cc1 | 21.2%
14 | CN1C(=O)/C(=C\c2ccc(N3CCCCC3)o2)C(=O)NC1=S | 8.05%
15 | CC1(C)CC(=O)C=C(/C=C/c2ccccc2)C1 | -7.72%
16 | Cc1nn(-c2ccccc2)c(C)c1NC(=O)COC(=O)c1cc([N+](=O)[O-])ccc1NCCO | -13.7%
17 | COc1ccccc1NC(=O)Nc1nc(CC(=O)NC2CCCC2)cs1 | -22.1%
18 | O=C1C2C3C=CC(C4CC34)C2C(=O)N1/N=C/c1ccc([N+](=O)[O-])s1 (stereo not shown) | -10.8%
19 | O=C1CCCC2=C1C(c1cn(-c3ccccc3)nc1-c1cccs1)c1c([nH]c(=O)[nH]c1=O)N2 (stereo not shown) | 13%
20 | Cc1onc(C(=O)N2CCOCC2)c1[N+](=O)[O-] | 19.8%
21 | COc1ccc(CCNc2ccc(C(=O)O)cc2[N+](=O)[O-])cc1OC | 15.8%
22 | COC(=O)[C@H](CCSC)NC(=O)Nc1ccc(C(C)=O)cc1 | 9.56%
23 | Cc1ccc(S(=O)(=O)NCC(=O)OCC(=O)c2c(N)n(C)c(=O)n(C)c2=O)cc1 | 19.2%
24 | COc1ccc(CN2CCOCCOCCN(Cc3ccc(OC)cc3)CCOCCOCC2)cc1 | -77.3%
25 | CCC(=O)Nc1cccc(C2=NOC3(C2)C[C@@H](C(N)=O)N(C(=O)COc2ccc(Cl)cc2)C3)c1 (stereo partly shown) | 4.12%
26 | COc1ccc(-c2nc(CSCC(=O)NC3CCCc4ccccc43)c(C)o2)cc1OC (stereo not shown) | -0.229%
27 | Cc1c(O)ccc2c(=O)c(-c3nncn3-c3ccccc3)coc12 | 21.2%
28 | O=C(Cc1ccc(S(=O)(=O)N2CCCCC2)s1)Nc1ccc(F)c(F)c1 | -31.1%

Row | SMILES | hERG current change (%, negative = inhibition) at 10uM
29 | NC1=NC(=O)/C(=C/c2cn(Cc3ccccc3)c3ccccc23)S1 | 8.82%
30 | CC(=O)c1cc2c(cc1NC(=O)c1ccc(C)cc1)OCCO2 | -0.576%
31 | CCCCN(C)CCCNC(=O)c1ccc2c(c1)N(CC)C(=O)c1ccccc1S2=O (stereo not shown) | 13.7%
32 | CN1CCC(Oc2ccccc2Sc2ccc(C(F)(F)F)cc2)CC1.O=C(O)C(=O)O | -63.2%
33 | COC(=O)c1sc(NC(=O)COc2ccc(C)cc2)nc1C | 11.4%
34 | Cn1c(Cn2nnc3ccccc32)nnc1SCC(=O)Nc1nccs1 | -2.45%
35 | Cc1cc(=O)[nH]c(N2CCN(Cc3ccccc3)CC2)n1 | -2.95%
36 | CC(C)CN1C(=O)C(=O)N(CC(=O)NC2CCCc3ccccc32)C1=O (stereo not shown) | 11.5%
37 | COC(=O)CSc1nc(N)c(C#N)c(-c2ccco2)c1C#N | 5.03%
38 | CCOC(=O)C1CCN(C(=O)c2c(-c3c(Cl)cccc3Cl)noc2C)CC1 | -15.9%
39 | COc1ccc(OC)c(NC(=O)c2cc3c(Cl)nc4ccccc4c3s2)c1 | 17%
40 | CNC(=O)CSc1nc2c(c(=O)n(C)c(=O)n2C)n1Cc1ccc(C)cc1 | -29.3%
41 | COc1ccccc1C(=O)Nc1ccc2c(c1)nc1n2CCN(C2CCCCC2)C1 | -33.1%
42 | CSc1ccc(NC(=O)Nc2cccn(Cc3ccccc3)c2=O)cc1 | 16.2%
43 | Cc1ccc(NC(=S)NCCN2CCOCC2)cc1F | -2.1%
44 | CCCCN(CC(=O)NCCOC)C(=O)Cn1nnc2ccccc21 | 15.1%
45 | CCc1ccc(C2C(C#N)=C(N)C(C#N)(C#N)C3=CCC(C(C)(C)C)CC32)cc1 (stereo not shown) | 5.1%
46 | CC(=O)c1ccc(NC(=O)CNC2CCCCC2)cc1.Cl | 13.7%
47 | CCOc1ccc(C(=O)NC2CC(C)(C)NC(C)(C)C2)cc1.Cl | 7.37%
48 | C[C@@H]1OC(Nc2ccc(N=Nc3ccccc3)cc2)[C@H](O)[C@H](O)[C@H]1O (stereo partly shown) | 15.1%
49 | OC1CCC(NC(=S)Nc2ccc(SC(F)F)cc2)CC1 (stereo not shown) | 7.66%
50 | CC1CCN(c2ccc([N+](=O)[O-])cn2)CC1 | 6.96%
51 | C[C@@H](NC(=O)c1nc[nH]c1C(=O)N[C@@H](CCCCNC(=O)OC(C)(C)C)C(=O)OC(C)(C)C)c1ccccc1 | 3.23%
52 | O=c1oc2ccccc2c(N2CCCCC2)c1[N+](=O)[O-] | -14.3%
53 | CC(OC(=O)CCN=C1NS(=O)(=O)c2ccccc21)C(=O)c1ccccc1 (stereo not shown) | 7.33%
54 | CCN1CCc2c(C#N)c(N3CCOCC3)nc(NCCO)c2C1 | 11.8%
55 | COC(=O)c1cc(NC(=O)CC2SCCNC2=O)cc(C(=O)OC)c1 (stereo not shown) | 15.5%
